{"source": "the supplement of paper PMC10126150", "note": "Sequences with one replicate were seen in a single cluster, so their values are uncertain.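 Note: ATP exposure 15 min at 22 °C before imaging.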", "data": [{"test_system": "ATP", "assay": "switch fluorescence ratio, 500 uM ATP over buffer (Cy3 cluster intensity, sum of 5 cycles each) (fold (ratio)); higher = stronger signal-on switching upon ATP binding; sequences stand for … in TCGTCGGCAGCGTCAGATGTGTATAAGAGACAGTTTTTTTTTTTTTTTTTTTTTTTTT…TC", "details": "aptamer strand: ATP DNA aptamer (quencher-CACCTGGGGGAGTATTGCGGAGGAAGG + anchor), 100 nM annealed; ATP concentration: 500 uM; one replicate", "outline": "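For every switch-domain sequence, the fluorescence ratio is the mean of per-cluster values, each being summed target-cycle Cy3 intensity over summed buffer-cycle Cy3 intensity. Clusters outside 100-1000 RFU were excluded. On a modified Illumina MiSeq flow-cell, the Cy3-labelled switching-strand clusters were annealed to 100 nM quencher-labelled ATP aptamer, imaged in selection buffer and then after 15 min with 500 uM ATP at 22 °C. Five such cycles were run, with NaOH stripping and re-annealing between them.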", "values": [{"sequence": "TACTCCAAGG", "switch fluorescence ratio": 1.29}, {"sequence": "TACTCCTCAA", "switch fluorescence ratio": 5.72}, {"sequence": "TACTCCTTGT", "switch fluorescence ratio": 1.07}, {"sequence": "TACTCGATCG", "switch fluorescence ratio": 1.01}, {"sequence": "TACTCTTGT", "switch fluorescence ratio": 0.987}, {"sequence": "TACTGAACTT", "switch fluorescence ratio": 1.13}, {"sequence": "TACTGCCATG", "switch fluorescence ratio": 1.06}, {"sequence": "TACTGGAGTG", "switch fluorescence ratio": 0.988}, {"sequence": "TACTGGCTAT", "switch fluorescence ratio": 1.01}, {"sequence": "TACTGGGCGC", "switch fluorescence ratio": 0.981}, {"sequence": "TACTGTTACG", "switch fluorescence ratio": 1.27}, {"sequence": "TACTTCGGCT", "switch fluorescence ratio": 1}, {"sequence": "TACTTCTG", "switch fluorescence ratio": 1.06}, {"sequence": "TACTTGACG", "switch fluorescence ratio": 1.02}, {"sequence": "TACTTGCA", "switch fluorescence ratio": 1.09}, {"sequence": "TACTTGGCTA", "switch fluorescence ratio": 1.03}, {"sequence": "TACTTGGTGT", "switch fluorescence ratio": 1.04}, {"sequence": "TACTTGGTTT", "switch fluorescence ratio": 0.987}, {"sequence": "TACTTTAGT", "switch fluorescence ratio": 1.02}, {"sequence": "TAGAAAACGG", "switch fluorescence ratio": 1.02}, {"sequence": "TAGAAAACTC", "switch fluorescence ratio": 0.982}, {"sequence": "TAGAAAGTAT", "switch fluorescence ratio": 1}, {"sequence": "TAGAAATTCT", "switch fluorescence ratio": 1.04}, {"sequence": "TAGAACATAG", "switch fluorescence ratio": 1.03}, {"sequence": "TAGAACCGAG", "switch fluorescence ratio": 1.3}, {"sequence": "TAGAACGCT", "switch fluorescence ratio": 1.06}, {"sequence": "TAGAACTGCT", "switch fluorescence ratio": 1.03}, {"sequence": "TAGAAGACTC", "switch fluorescence ratio": 1.06}, {"sequence": "TAGAATACGC", "switch fluorescence ratio": 1.14}, {"sequence": "TAGAATCAGA", "switch fluorescence ratio": 0.978}, {"sequence": "TAGACAGGGT", "switch fluorescence ratio": 1.02}, {"sequence": "TAGACCAGGG", "switch fluorescence ratio": 1.09}, {"sequence": "TAGACTGATT", "switch fluorescence ratio": 1}, {"sequence": "TAGAGAGAAA", "switch fluorescence ratio": 1.02}, {"sequence": "TAGAGAGTTC", "switch fluorescence ratio": 1.14}, {"sequence": "TAGAGGACAT", "switch fluorescence ratio": 1.01}, {"sequence": "TAGAGGGCTT", "switch fluorescence ratio": 1}, {"sequence": "TAGAGGTGGT", "switch fluorescence ratio": 0.975}, {"sequence": "TAGAGTTGAA", "switch fluorescence ratio": 0.973}, {"sequence": "TAGATAATC", "switch fluorescence ratio": 0.944}, {"sequence": "TAGATACGCA", "switch fluorescence ratio": 1.09}, {"sequence": "TAGATACGGT", "switch fluorescence ratio": 0.975}, {"sequence": "TAGATCATCA", "switch fluorescence ratio": 1}, {"sequence": "TAGATCATTA", "switch fluorescence ratio": 0.999}, {"sequence": "TAGATCGTGC", "switch fluorescence ratio": 0.976}, {"sequence": "TAGATCTTG", "switch fluorescence ratio": 1}, {"sequence": "TAGATGCGAT", "switch fluorescence ratio": 1.06}, {"sequence": "TAGATGCTGA", "switch fluorescence ratio": 0.982}, {"sequence": "TAGATGGCAG", "switch fluorescence ratio": 1.02}, {"sequence": "TAGATGGGCA", "switch fluorescence ratio": 1}, {"sequence": "TAGATGTAT", "switch fluorescence ratio": 0.989}, {"sequence": "TAGATTAGC", "switch fluorescence ratio": 0.962}, {"sequence": "TAGCAATTTA", "switch fluorescence ratio": 1.27}, {"sequence": "TAGCACGTAC", "switch fluorescence ratio": 1.98}, {"sequence": "TAGCACGTCA", "switch fluorescence ratio": 1.06}, {"sequence": "TAGCACTCAG", "switch fluorescence ratio": 0.98}, {"sequence": "TAGCAGACGT", "switch fluorescence ratio": 1.06}, {"sequence": "TAGCAGCTCC", "switch fluorescence ratio": 2}, {"sequence": "TAGCAGGGGT", "switch fluorescence ratio": 1.07}, {"sequence": "TAGCATGAT", "switch fluorescence ratio": 1.05}, {"sequence": "TAGCCAGCGG", "switch fluorescence ratio": 0.957}, {"sequence": "TAGCCAGGCG", "switch fluorescence ratio": 1.62}, {"sequence": "TAGCCCGGCG", "switch fluorescence ratio": 0.998}, {"sequence": "TAGCCGATTG", "switch fluorescence ratio": 0.95}, {"sequence": "TAGCCGGTTT", "switch fluorescence ratio": 0.982}, {"sequence": "TAGCCGTTAA", "switch fluorescence ratio": 0.971}, {"sequence": "TAGCGACTTC", "switch fluorescence ratio": 1}, {"sequence": "TAGCGAGGAA", "switch fluorescence ratio": 0.971}, {"sequence": "TAGCGGATCG", "switch fluorescence ratio": 0.952}, {"sequence": "TAGCGGCACG", "switch fluorescence ratio": 0.967}, {"sequence": "TAGCTATTGG", "switch fluorescence ratio": 1.03}, {"sequence": "TAGCTTACTT", "switch fluorescence ratio": 1.05}, {"sequence": "TAGCTTTAGC", "switch fluorescence ratio": 0.958}, {"sequence": "TAGCTTTTGC", "switch fluorescence ratio": 0.989}, {"sequence": "TAGGACCCTA", "switch fluorescence ratio": 1.08}, {"sequence": "TAGGACTTG", "switch fluorescence ratio": 0.97}, {"sequence": "TAGGAGAGAA", "switch fluorescence ratio": 1}, {"sequence": "TAGGAGATTA", "switch fluorescence ratio": 1.01}, {"sequence": "TAGGATAAAG", "switch fluorescence ratio": 0.988}, {"sequence": "TAGGCACGGC", "switch fluorescence ratio": 0.984}, {"sequence": "TAGGCAGTGC", "switch fluorescence ratio": 1.1}, {"sequence": "TAGGCATCTG", "switch fluorescence ratio": 0.97}, {"sequence": "TAGGCCACGG", "switch fluorescence ratio": 1.02}, {"sequence": "TAGGCGAATG", "switch fluorescence ratio": 0.954}, {"sequence": "TAGGCGGGCA", "switch fluorescence ratio": 1.03}, {"sequence": "TAGGCGTACT", "switch fluorescence ratio": 1.1}, {"sequence": "TAGGCTATCT", "switch fluorescence ratio": 1.09}, {"sequence": "TAGGGATATT", "switch fluorescence ratio": 1.04}, {"sequence": "TAGGGATGTT", "switch fluorescence ratio": 1}, {"sequence": "TAGGGCATCC", "switch fluorescence ratio": 1.06}, {"sequence": "TAGGGCTAAC", "switch fluorescence ratio": 1.05}, {"sequence": "TAGGGGATCT", "switch fluorescence ratio": 1.03}, {"sequence": "TAGGGGCGCT", "switch fluorescence ratio": 1.01}, {"sequence": "TAGGGGTCAC", "switch fluorescence ratio": 0.981}, {"sequence": "TAGGGTGCG", "switch fluorescence ratio": 0.993}, {"sequence": "TAGGGTGGTC", "switch fluorescence ratio": 0.999}, {"sequence": "TAGGGTGGTT", "switch fluorescence ratio": 1.01}, {"sequence": "TAGGTAGTAG", "switch fluorescence ratio": 1.03}, {"sequence": "TAGGTCACCG", "switch fluorescence ratio": 0.986}, {"sequence": "TAGGTCCGCC", "switch fluorescence ratio": 0.989}, {"sequence": "TAGGTCCGTA", "switch fluorescence ratio": 1.02}, {"sequence": "TAGGTCCTAG", "switch fluorescence ratio": 0.984}, {"sequence": "TAGGTGGTGT", "switch fluorescence ratio": 1}, {"sequence": "TAGGTGTACG", "switch fluorescence ratio": 0.976}, {"sequence": "TAGGTGTTTA", "switch fluorescence ratio": 0.994}, {"sequence": "TAGGTTAAGT", "switch fluorescence ratio": 1.01}, {"sequence": "TAGGTTCGTT", "switch fluorescence ratio": 0.997}, {"sequence": "TAGGTTGGT", "switch fluorescence ratio": 0.991}, {"sequence": "TAGGTTTAGA", "switch fluorescence ratio": 1.02}, {"sequence": "TAGGTTTATG", "switch fluorescence ratio": 0.984}, {"sequence": "TAGGTTTCCG", "switch fluorescence ratio": 1.01}, {"sequence": "TAGTAAAGCG", "switch fluorescence ratio": 1.01}, {"sequence": "TAGTAAAGTG", "switch fluorescence ratio": 1.05}, {"sequence": "TAGTAACTGG", "switch fluorescence ratio": 1.01}, {"sequence": "TAGTAAGTCG", "switch fluorescence ratio": 1.03}, {"sequence": "TAGTACAGGT", "switch fluorescence ratio": 1.04}, {"sequence": "TAGTAGGA", "switch fluorescence ratio": 1.02}, {"sequence": "TAGTATAGCC", "switch fluorescence ratio": 0.956}, {"sequence": "TAGTATAGTG", "switch fluorescence ratio": 1.03}, {"sequence": "TAGTATTCAG", "switch fluorescence ratio": 0.994}, {"sequence": "TAGTCAGCCG", "switch fluorescence ratio": 0.882}, {"sequence": "TAGTCATCAA", "switch fluorescence ratio": 0.976}, {"sequence": "TAGTCATTGC", "switch fluorescence ratio": 1.03}, {"sequence": "TAGTCCGCCT", "switch fluorescence ratio": 1.05}, {"sequence": "TAGTCGATTC", "switch fluorescence ratio": 1.02}, {"sequence": "TAGTCGGGAA", "switch fluorescence ratio": 0.963}, {"sequence": "TAGTCTTATA", "switch fluorescence ratio": 1}, {"sequence": "TAGTGAAGAA", "switch fluorescence ratio": 1.02}, {"sequence": "TAGTGAAGTG", "switch fluorescence ratio": 0.904}, {"sequence": "TAGTGAGAAT", "switch fluorescence ratio": 0.935}, {"sequence": "TAGTGATATA", "switch fluorescence ratio": 0.982}, {"sequence": "TAGTGCCTTC", "switch fluorescence ratio": 1}, {"sequence": "TAGTGCGGTG", "switch fluorescence ratio": 0.987}, {"sequence": "TAGTGTCCGT", "switch fluorescence ratio": 1.02}, {"sequence": "TAGTTAGAGA", "switch fluorescence ratio": 1}, {"sequence": "TAGTTATTGG", "switch fluorescence ratio": 1.02}, {"sequence": "TAGTTGAAGA", "switch fluorescence ratio": 1.01}, {"sequence": "TAGTTGCCTT", "switch fluorescence ratio": 0.964}, {"sequence": "TAGTTGCTGT", "switch fluorescence ratio": 0.989}, {"sequence": "TAGTTGTAGC", "switch fluorescence ratio": 0.998}, {"sequence": "TAGTTGTGAT", "switch fluorescence ratio": 0.955}, {"sequence": "TAGTTTGAAG", "switch fluorescence ratio": 0.999}, {"sequence": "TATAAAAA", "switch fluorescence ratio": 1.01}, {"sequence": "TATAAAAG", "switch fluorescence ratio": 1.02}, {"sequence": "TATAAATTCG", "switch fluorescence ratio": 1}, {"sequence": "TATAACCACG", "switch fluorescence ratio": 1.08}, {"sequence": "TATAAGAAGG", "switch fluorescence ratio": 0.979}, {"sequence": "TATAAGGATA", "switch fluorescence ratio": 0.991}, {"sequence": "TATAAGGCG", "switch fluorescence ratio": 1.02}, {"sequence": "TATAAGTTTC", "switch fluorescence ratio": 0.963}, {"sequence": "TATAATCTCA", "switch fluorescence ratio": 0.996}, {"sequence": "TATACAACAG", "switch fluorescence ratio": 1.15}, {"sequence": "TATACAGTG", "switch fluorescence ratio": 0.995}, {"sequence": "TATACATCCA", "switch fluorescence ratio": 1.11}]}]}
